# The source gives no read counts; variants with many changes may rest on few reads.
# B1: LINE1-mini (parent)
# chain: GGCAGAGCUCAACACAGCGUGGCAAAGUGGCUGUGGCUAGACUGCC
# Variants of: B1
# Experiment: self-cleavage, relative activity (ratio to wild type); higher = more cleavage; in vitro, sequencing; the parent is a self-cleaving ribozyme
row,Variant,self-cleavage
1,C8G C13A G19A,0.03
2,C8A G29C G40U C45A,0.14
3,C8G G17C G29U C31G G40A,0.02
4,C8A G22A G27U,0.06
5,C8A G21U C42G,0.12
6,C8A G35U C45G C46U,0.37
7,C8G A26C C37A,0.06
8,C8G C13A C15U G27C U34A C46U,0.11
9,C8G C15A A26G C46A,0.01
10,C8G C13G C37G A41C C45A,0.06
11,C8A U9G A12U G17A C31A,0.05
12,C8G A11U G22U A25C,0.01
13,C8A G29U C42G,1.24
14,C8G G17U C23A C46G,0.03
15,C8G A11G C18U G21C G30U G35U C46U,0.01
16,C8A U28A C46A,0.08
17,C8A G21A C45A,0.63
18,C8G C15A G19A C23A G27C,0.03
19,C8G C18A G21A U28G A39G U43C,0.01
20,C8A G36C U38G G44A,0.93
21,C8A G27U A39U,0.04
22,C8G C10A A11U,0.02
23,C8A U32A G36A C42U,0.05
24,C8G A14U G30U U38A,0.15

row,Variant,self-cleavage
1,C8G C15A G17A G19A G44A,0.07
2,C8A U32G G36C U38G,0.16
3,C8G A12G G22A G29A C46U,0.02
4,C8A U20A C31A C37U G44U,0.08
5,C8G C23G C46U,0.04
6,C8A G36U C42A C45A,0.05
7,C8G C15U A16G G35U C37U G44A,0
8,C8A G22C G27U G29U,0.04
9,C8A U28A C45A,0.21
10,C8G C13U A14G U20C,0.04
11,C8A G22C C37A C46A,0.22
12,C8G C15A G40A,0.09
13,C8G A11U C23U A25C C31A C46U,0.01
14,C8G C10U G17C,0.02
15,C8G A12C G40U,0.02
16,C8A U28C C45G,0.26
17,C8A G35C G36U G40C,0.19
18,C8A G21A C31U,0.19
19,C8A U9A A24U G35U G40A,0.22
20,C8A U9G G21C G27U,0.05
21,C8A U28G U43A C45A,0.17
22,C8A G33U U38A A41U G44U,0.14
23,C8G A14G G19U A26G C31U A41C,0.03
24,C8G A14C G29A U32A,0.06

row,Variant,self-cleavage
1,C8G A12U A26G,0.13
2,C8G C18A U28G U34A,0.03
3,C8G A14G G27C,0.05
4,C8G C13A G44U,0.03
5,C8G A14G C15U U20A,0.07
6,C8A U9A C10A C18A G33U,0
7,C8A G21U G27C G40U,0.08
8,C8G C10U A14G G29A,0.01
9,C8A G21C C42A G44A,0.47
10,C8A G22C G29U,0.11
11,C8G C15U G33A,0.26
12,C8G A11U G22A,0.03
13,C8A U28A C31U,0.09
14,C8G A11C G21C C31U G33C C37U C46G,0
15,C8A U20C U38G,0.07
16,C8G C15U U32G G36A C42A,0.08
17,C8A G27C G30C U32A G35C U43G G44A,0.08
18,C8A G22C C23G G29U C37A,0.06
19,C8G C10A C15A A16G A25U G30A,0.02
20,C8A U20G U32A,0.09
21,C8G C10A A24G,0.03
22,C8G C18U C23A U32A,0.13
23,C8G A16G G22U A26U,0.07
24,C8G C23U G30A G33A A41C,0.07

row,Variant,self-cleavage
1,C8G C18U G36A C46U,0.01
2,C8G C15G C45A C46G,0.04
3,C8A U9C G29C C42G,0.1
4,C8G A12C C23A,0.01
5,C8G G17C A26U G36U,0.05
6,C8G C15A A25C A39G C46G,0.05
7,C8G A12C G17A C23U A24C A26U U38C C46G,0
8,C8A G19U U43A G44U C45U,0.09
9,C8G A12G U34A A39U,0.01
10,C8G C18U G30U,0.12
11,C8G A16G C18G G22U,0.02
12,C8G A14G C15A C18A C31U G40C C46A,0
13,C8A U32C A39G C42A,0.38
14,C8A G19U C23U G29U A39G C45U,0.08
15,C8A G33U G36A,0.4
16,C8G C18A U20G A25G A26U G30A C46U,0.09
17,C8G C18A G36C,0.02
18,C8A U20A G40A,0.11
19,C8A G22C G27C C37U,0.11
20,C8A G27U U28C,0.19
21,C8A G19U U28C G29U,0.05
22,C8G C37U G40U,0.01
23,C8G C18U G19U G29U,0.02
24,C8G A12U C13G C37G G44U,0.02

row,Variant,self-cleavage
1,C8G C10A U20C,0
2,C8G A39G C45G,0.01
3,C8A G35U G44C,0.17
4,C8G C10G A14G G21U C23G,0.01
5,C8A U9C G22C A24U G36U C46A,0.09
6,C8G A24G C46A,0.02
7,C8A G22U C42U,0.07
8,C8A U28G C37U,0.03
9,C8G A25C C31A C37A,0.01
10,C8A G21C G29A,0.25
11,C8A G35U A39G,0.11
12,C8G C31U A41C G44U,0.08
13,C8A G40U U43G C45A,0.01
14,C8G G17C A25U,0
15,C8G G17C G44C,0.02
16,C8G C10A A41C,0.02
17,C8G C15U G19A G33C,0.01
18,C8A G27U U43A,0.07
19,C8G A16C U32G,0.03
20,C8G A24U C46U,0.08
21,C8G C10A C37A,0.03
22,C8G C10U C18A,0.04
23,C8A G35U C37G,0.03
24,C8G C10A C18A U20C C46U,0.01

row,Variant,self-cleavage
1,C8A G22A G27A C42U,0.17
2,C8A U9G C10U A11G U20A,0.04
3,C8G C10A U20C G33U U38G A41C,0
4,C8G C23G G33U G36A,0
5,C8G A11C G17C U28A,0.01
6,C8G A11U A16G G21U U28C G44U,0.01
7,C8A G22C A26C G36U,0.09
8,C8G A11G A26U G40U C42U,0
9,C8A U20A G29C G44C,0.04
10,C8G C23U U32A G44U,0.07
11,C8G A14C A41U,0.1
12,C8G A26C G30A U32A A41G,0.01
13,C8G C10A C13A G17U G27U,0.03
14,C8A U9A C10U G36U U38G,0.02
15,C8G C10A A26G C37U C42A C45U,0.01
16,C8G G17U C37U,0.16
17,C8G C10U G22U G40U U43G C46U,0.05
18,C8A G22A A26C U38C G40U,0.07
19,C8A U9C G17A G21A G22U U38G,0.03
20,C8G A11G C13U G22U,0.02
21,C8A G40A U43G,0.2
22,C8A U38A A41C,0.28
23,C8G C23G G36A U38G,0.16
24,C8G C13A G30C U34A,0.07

row,Variant,self-cleavage
1,C8G C15A A16G C31U C37A,0
2,C8G C37A C42A C46G,0.07
3,C8A U20G G40A,0.06
4,C8A G22C G27C,0.22
5,C8A U20G G21U G29U,0.14
6,C8G C13G G30U,0.03
7,C8G A25C C31A,0.04
8,C8G A12C G30C,0
9,C8G A14C G17C A24U U32G,0.04
10,C8A U9G A12G C37U G44A,0.12
11,C8A U9C A41C,0.09
12,C8G A24U G30U U32C,0.2
13,C8G C23U C37G,0.06
14,C8G C18G G19U,0.03
15,C8G G17U C31A C42G,0.1
16,C8G C15A U28C,0.04
17,C8G C13G C42U,0
18,C8A G36U C42A,0.09
19,C8A G21U G35A,0.92
20,C8G A25C G27A G44U,0.01
21,C8G C15G G19C G21U,0.03
22,C8A G27C A39G,0.02
23,C8G C15U G21U,0.05

# Source: the RNAGym collection of RNA variant scans (doi:10.7554/elife.90254)
